PubChem BioAssay AID686970 (National Center for Advancing Translational Sciences (NCATS), 2013)
Several values for one entry are separate records, joined by “and”; a condition that tells them apart may be missing. Equal entries are not always repeated. Among all 360,000 compounds or so, about 6,000 (1.7%) were called active. This list was built around the results that the source calls inconclusive (neither active nor inactive); the mix of calls is not that of the screen. Calls come from the whole dose curve; as a rule, active = well fitted cell-killing curve with a large enough effect; inconclusive = small, poorly fitted or top-dose-only effect, or effect the other way; inactive = flat fitted curve, though single readings scatter. Potencies beside an inconclusive call are fits to weak or partial responses and may not hold up.

Assay: qHTS for induction of synthetic lethality in tumor cells producing 2HG: qHTS for the HT-1080-NT fibrosarcoma cell line;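 note: NT is the 2HG producing partner of a matched IDH1 knockdown line; nearly all actives have a fitted effect of over 55% in size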;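 for activity, negative = less viability: 0% = DMSO-treated cells and -100% = media-only wells without cells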
Details: HT-1080-NT fibrosarcoma viability, CellTiter-Glo ATP luminescence, 48 h; activity, negative = less viability: at 46.1 µM (top of the series) unless noted
In short: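 Viability by CellTiter-Glo luminescence after 48 h compound exposure at 37C of HT-1080-NT cells (750/well, RPMI, 5% FBS). % activity scaled between DMSO wells and medium-only wells, then curve-fitted and categorized by curve class.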
Potency is the fitted concentration of half-maximal effect; tags give direction and shape of the fitted curve.

| Compound | Potency | activity, negative = less viability |
| --- | --- | --- |
| CN1CCN(c2nc(-c3ccccn3)nc3ccccc23)CC1 | active: 7.94 µM |  |
| CC(C)Cc1nc2oc3c(NCC(C)O)ncnc3c2c2c1CCCC2 (centres undefined) |  | inactive: -2.18% |
| CC(=O)N1CCN(S(=O)(=O)c2cccc(C(=O)OCN3C(=O)c4ccccc4C3=O)c2)CC1 |  | inconclusive: 41.3% |
| CCCc1ccc(C2C3=C(CC(C)(C)CC3=O)NC3=C2C(=O)c2ccccc23)cc1 (centres undefined) | inconclusive: 28.2 µM [cytotoxic, single point] |  |
| N#C/C(=C1/CCCN1)c1ccccn1 | inconclusive: 6.31 µM [rising, single point] |  |
| COc1ccc(/C=N/NC(=O)CSCC(=O)Nc2ccccc2)cc1OC |  | inactive: 6.89% |
| O=C(/C=C/c1c(F)cccc1Cl)c1ccc(F)cc1 | inconclusive: 29.1 µM [cytotoxic, single point] |  |
| CS(=O)(=O)N1CCN(C/C=C/c2ccccc2)CC1 |  | inactive: -2.7% |
| CCC1(C)NC(=O)N(/N=C/c2cc(OC)c(O)c(OC)c2)C1=O (centres undefined) | inconclusive: 20.6 µM [rising, single point] |  |
| CCCc1ccc(C(O)c2ncc(-c3cccc(OC)c3)[nH]2)cc1 (centres undefined) | inconclusive: 23.1 µM [cytotoxic, single point] |  |
| COc1ccccc1NC(=O)c1cc2cc(Br)ccc2cc1O | inconclusive: 20.6 µM [cytotoxic, single point] |  |
| CC(C)C[C@H](NC(=O)c1[nH]cnc1C(=O)N[C@H](C)c1ccccc1)C(=O)OC(C)(C)C | inconclusive: 29.1 µM [cytotoxic, single point] |  |
| O=C(COC(=O)c1ccc(Cl)c(Cl)c1)Nc1cccnc1Cl | inconclusive: 1.16 µM [rising, partial curve, poor fit] |  |
| Cc1ccc(C(=O)NC(=C(Cl)Cl)S(=O)(=O)c2ccc(C)cc2)cc1 | inconclusive: 23.1 µM [cytotoxic, single point] |  |
| Cc1ccc2nc(C)cc(Nc3ccc4c(c3)OCCO4)c2c1 | inconclusive: 35.5 µM [cytotoxic, single point] |  |
| CN1CCN(C(=O)C[C@H]2CC[C@H]3[C@@H](COC[C@@H](O)CN3C(=O)C3CCCC3)O2)CC1 |  | inactive: 22.8% |
| CC12CNCC(C)(CN(C(c3ccccc3)c3ccccc3)C1)C2 | inconclusive: 23.1 µM [cytotoxic, partial curve] |  |
| CCN(CC)CCCNc1nc2cc(OC)c(OC)cc2c2nc(-c3ccccc3)nn12 | active: 18.4 µM |  |
| Cc1cc(C)cc(Nc2cc(=O)n(C3CCCCC3)c(=O)[nH]2)c1 | inconclusive: 25.9 µM [cytotoxic, single point] |  |
| CCOC(=O)[C@]12CCCC=C1N(CCC1=CCCCC1)C(=O)[C@H](CC(=O)NCc1ccc(C)o1)C2 | inconclusive: 29.1 µM [cytotoxic, single point] |  |
| COc1cc(/C=C2/NC(=O)N(c3cccc(Cl)c3)C2=O)ccc1O | inconclusive: 18.4 µM [cytotoxic, partial curve, poor fit] |  |
| CN(C(=O)c1cccc(NC(=O)Cc2ccc(NC(=O)C3CCCN(C(=O)C4CC4)C3)cc2)c1)C1CCCC1 (centres undefined) |  | inactive: 2.99% |
| CCOc1ccccc1NC(=O)c1ccc(NC(=O)c2ccco2)cc1 |  | inactive: -8.26% |

| Compound | Potency | activity, negative = less viability |
| --- | --- | --- |
| O=C(c1ccc(-n2nc(C(F)(F)F)c3c2CCCC3)cc1)N1CCOCC1 |  | inactive: 9.13% |
| COc1cc(/C=N/N(C)c2ccccc2)cc(Cl)c1O | inconclusive: 25.9 µM [cytotoxic, single point] |  |
| Cc1c(Cl)cccc1NC(=O)Nc1ccc(C(=O)N2CCCC2)cc1 | inconclusive: 23.1 µM [cytotoxic, single point] |  |
| Cc1ccc(NC(=O)CCn2nnc3ccccc32)c(C)c1 | inconclusive: 2.91 µM [cytotoxic, single point] |  |
| O=C(CSc1ccsc1[N+](=O)[O-])N1CCN(c2ccc(Cl)cc2)CC1 |  | inactive: 4.7% |
| Cc1onc(-c2ccccc2)c1C(=O)Nc1nnc(COc2ccc(Cl)cc2)s1 | inconclusive: 25.9 µM [cytotoxic, single point] |  |
| Cc1ccc(NC(=O)Nc2nnc(-c3ccncc3)s2)cc1 | inconclusive: 29.1 µM [cytotoxic, single point] |  |
| COc1ccc(S(=O)(=O)Nc2ccc(S(=O)(=O)N3CCCCC3)cc2)cc1 |  | inactive: -5.72% |
| COCOCCn1cc(CN2CCS(=O)(=O)N(Cc3ccc(-c4ccncc4)cc3)C(C)C2=O)nn1 (centres undefined) |  | inactive: 17.8% |
| Cc1ccc(NC(=O)CN(C)C(=O)COC(=O)c2ccc(Cl)cc2O)cc1 |  | inactive: -0.143% [at 9.24 µM] |
| CCCCn1nc(C(=O)N2CCN(S(=O)(=O)c3ccccc3)CC2)c2ccccc2c1=O |  | inactive: -3.18% |
| COC(=O)[C@]12CCCCC=C1N(Cc1ccc(Cl)cc1Cl)C(=O)[C@H](CC(=O)NCC1CCCCC1)C2 | inconclusive: 18.4 µM [cytotoxic, single point] |  |
| Fc1ccc(Br)cc1C1C=C(c2ccc(Br)s2)Nc2ncnn21 (centres undefined) | active: 1.3 µM |  |
| COc1ccc(/C=C/C(=O)OCC(=O)N2CC(=O)Nc3ccccc32)cc1S(=O)(=O)N1CCOCC1 | inconclusive: 29.1 µM [cytotoxic, single point] |  |
| Cc1ccc(O)c(CNc2nc3ccccc3[nH]2)c1 |  | inactive: -12.6% |
| COC(=O)c1cccc(CN2C(=O)C(C)Sc3cc(Cl)ccc32)c1 (centres undefined) | inconclusive: 29.1 µM [cytotoxic, single point] |  |
| O=C(c1ccc(Oc2ccccc2)cc1)C1CCCN(C(=O)c2cnccn2)C1 (centres undefined) | inconclusive: 25.9 µM [cytotoxic, single point] |  |
| CCN(CCNC(=O)C1CCN(Cc2nc(-c3ccc(Cl)cc3)oc2C)CC1)c1ccccc1 | inconclusive: 16.4 µM [cytotoxic, partial curve] |  |
| COc1ccc(NC(=O)COc2cc(C)cc(C)c2)cc1S(=O)(=O)N1CCCCC1 | inconclusive: 2.31 µM [cytotoxic, partial curve] |  |
| Cc1ccc2[nH]c3c(c2c1)CCCC3NC(=O)CCl (centres undefined) | active: 1.3 µM |  |
| CS(=O)(=O)N1CCc2cc(S(=O)(=O)Nc3ccc4c(c3)OCCO4)ccc21 | inconclusive: 25.1 µM [cytotoxic, single point] |  |
| O=C(Nc1cccc(C(F)(F)F)c1)c1cc2c(s1)-c1ccccc1OC2 | inconclusive: 0.231 µM [rising, full curve, poor fit] |  |
| COC(=O)c1ccc(NC(=S)N(Cc2cccnc2)Cc2ccco2)cc1 |  | inactive: 6.25% |

| Compound | Potency | activity, negative = less viability |
| --- | --- | --- |
| CC(C)=CCOc1c2ccoc2c(OCC=C(C)C)c2oc(=O)ccc12 | inconclusive: 18.4 µM [cytotoxic, partial curve, poor fit] |  |
| COc1cc(C(=O)NCC2(N(C)C)CCCCC2)ccc1OCc1ccccc1 | inconclusive: 18.4 µM [cytotoxic, partial curve] |  |
| CCCc1nnc(SCC(=O)Nc2cccc(C(F)(F)F)c2)o1 |  | inactive: 26.2% |
| COc1ccc(C(C)(O)c2nc(-c3ccncc3)cs2)cc1 (centres undefined) | inconclusive: 7.31 µM [cytotoxic, partial curve] |  |
| COC(=O)[C@@]12C[C@@H](CC(=O)NCC34CC5CC(CC(C5)C3)C4)C(=O)N(Cc3ccco3)C1=CCC(C)(C)C2 | active: 20.6 µM |  |
| Cc1cccc(C)c1NC(=S)N1CCC(N(C)CC2CCCO2)CC1 (centres undefined) | inconclusive: 35.5 µM [rising, single point] |  |
| CC1(c2nnnn2-c2ccc3c(c2)OCCO3)CCC(=O)N1CCOc1ccccc1 (centres undefined) |  | inactive: 11.8% |
| COc1cc(C(O)c2nc(-c3cccc(NC(C)=O)c3)cs2)ccc1F (centres undefined) |  | inactive: 2.29% |
| CCN1CCN(Cc2ccc(NC(=O)c3cc(NC(=O)c4cncc(-c5ccc(C#N)cc5)c4)cc(OC)c3)cc2C(F)(F)F)CC1 | inconclusive: 18.4 µM [cytotoxic, single point] and inconclusive: 20.6 µM [cytotoxic, single point] |  |
| CCSc1nnc(NC(=O)CSc2nnc(Cc3cccn3C)n2CCc2ccccc2)s1 |  | inactive: 1.15% |
| O=C(Nc1cccc(Cl)c1)N1CCN(C/C=C/c2ccccc2)CC1 |  | inactive: -16.9% |
| Cc1cc(-c2ccccc2)n(-c2cc(N/N=C/c3ccccc3O)ncn2)n1 | inconclusive: 2.06 µM [cytotoxic, full curve] |  |
| COc1cc(C=NNC(=O)c2ccccc2-n2cccc2)ccc1O |  | inconclusive: -30.3% [cytotoxic] |
| CC1=C(CO)C(=O)OC([C@@H](C)C2CC[C@H]3C4C[C@H]5O[C@]56[C@@H](O)C=CC(=O)[C@]6(C)C4CC[C@]23C)C1 (some centres undefined) | active: 20.6 µM |  |
| COc1ccc(C(C#N)Nc2ccc(C)cc2)cc1 (centres undefined) | inconclusive: 25.9 µM [rising, single point] |  |
| CC(O)(c1ccc(F)c(F)c1)c1nc(-c2csc3ccccc23)cs1 (centres undefined) | inconclusive: 20.6 µM [cytotoxic, single point] |  |
| C/C=C/C=C/C(=O)N1CC[C@]23c4ccccc4N[C@H]4N(C)c5cccc6c5[C@]42CCN([C@H]6C2OC2(C)C)[C@H]13 (some centres undefined) | inconclusive: 23.1 µM [cytotoxic, single point] |  |
| O=C(Nc1nc(NC(=O)c2ccco2)n(-c2ccccc2)n1)c1ccccc1 | active: 10 µM |  |
| CCn1c(/C=C/c2c[nH]c3ccccc23)nc2ccccc2c1=O |  | inconclusive: -0.894% [cytotoxic] |
| O=C(Cn1ncc(Cl)c(Cl)c1=O)N1CCOCC1 | active: 11.6 µM |  |
| COc1ccc(-c2csc(N(CCCN(C)C)C(=O)c3ccc(C)cc3)n2)cc1 | inconclusive: 18.4 µM [cytotoxic, single point] |  |
| CC(=O)O[C@H]1CC[C@H]2[C@@H]3CCc4cc(O)ccc4[C@H]3CC[C@]12C | active: 18.4 µM |  |
| CCc1nc2c(OCc3ccc(Cl)cc3)cccn2c1N(C)C(=O)c1ccco1 | inconclusive: 29.1 µM [cytotoxic, single point] |  |
